# Data taken from PubChem BioAssay AID624417 (National Center for Advancing Translational Sciences (NCATS), 2012).
# “And” between values parts separate entries of the source, which are not always exact repeats. Equal values may be shown once. Hit rate of the full screen: of about 410,000 compounds, about 6,400 (1.6%) were called active. Inconclusive means that the source gave no clear call. Such entries were picked first, then a sample of the others. Calls follow the shape of the dose curve; as a rule, active = well fitted inhibition curve with a large enough effect; inconclusive = small, poorly fitted or top-dose-only effect; inactive = no such curve, though single readings can be large or run the other way. Potencies beside an inconclusive call are fits to weak or partial responses and may not hold up.
# Target: Glucagon-like peptide 1 receptor (Homo sapiens) (UniProt P43220)
# Assay: qHTS of GLP-1 Receptor Inverse Agonists (Inhibition Mode); also: nearly all actives have a fitted effect of over 55% in size
# Settings: HEK293 GLP-1R CRE-luciferase, luminescence, 24 h, GLP-1R form is constitutively active; series mostly up to 38.3 µM
# Summary of the method: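 Readout was luciferase luminescence, measured 12 min after detection reagent at room temperature. Beforehand, GLP-1R reporter HEK293 cells had sat 12 h, then received compounds for 24 hr at 37 deg C.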
# Potency is read from the fitted curve at half-maximal effect; tags tell the direction and shape of the fitted curve.
# Chain of UniProt P43220 (P43220 whole entry, looked up): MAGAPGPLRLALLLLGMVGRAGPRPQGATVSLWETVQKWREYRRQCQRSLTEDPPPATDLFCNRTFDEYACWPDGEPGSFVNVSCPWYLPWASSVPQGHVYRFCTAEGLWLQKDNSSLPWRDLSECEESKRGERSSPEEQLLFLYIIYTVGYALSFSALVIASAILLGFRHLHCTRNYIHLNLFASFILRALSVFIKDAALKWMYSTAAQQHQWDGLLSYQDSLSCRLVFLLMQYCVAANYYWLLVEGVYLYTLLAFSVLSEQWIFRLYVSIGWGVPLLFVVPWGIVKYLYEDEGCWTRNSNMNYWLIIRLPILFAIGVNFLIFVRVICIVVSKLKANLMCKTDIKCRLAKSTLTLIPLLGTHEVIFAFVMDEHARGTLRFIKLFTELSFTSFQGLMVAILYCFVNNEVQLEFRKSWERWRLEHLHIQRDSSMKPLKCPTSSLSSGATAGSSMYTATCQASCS
row,Structure (SMILES),Potency
1,COc1cccc(-c2ccc(NC(=O)C3CCCN(Cc4cc(C)[nH]n4)C3)cc2)c1 (configuration not stated),"inconclusive: 22.4 µM [inhibitor, single point]"
2,O=C(CSc1nc(-c2ccccc2)[nH]c1-c1ccccc1)Nc1ccc2c(c1)OCO2,"inconclusive: 12.6 µM [inhibitor, partial curve, poor fit]"
3,Cc1ccc(-n2ncc3c(N4CCC5(CC4)OCCO5)ncnc32)c(C)c1,"inconclusive: 8.91 µM [inhibitor, partial curve, poor fit]"
4,O=C(/C=C/c1ccco1)NC(=S)Nc1ccccc1N1CCOCC1,"inconclusive: 11.2 µM [inhibitor, single point]"
5,COc1ccccc1N1CCN(C(=O)CSc2nc3ccccc3nc2Cc2ccc(F)cc2)CC1,inactive
6,O=C(c1cc([N+](=O)[O-])ccc1N1CCCCC1)N1CCCCC1,inactive
7,CCOC(=O)C1(CCCc2ccccc2)CCN(C2CCSCC2)CC1,"inconclusive: 28.2 µM [inhibitor, single point]"
8,COc1ccc(C2(C)NC(=O)N(CC(=O)c3cc(C)n(C4CC4)c3C)C2=O)cc1 (configuration not stated),"inconclusive: 10 µM [inhibitor, single point]"
9,CCOC(=O)C1(CCOc2ccccc2)CCN(Cc2ccc(O)c(OCC)c2)CC1,"inconclusive: 7.94 µM [inhibitor, partial curve, poor fit]"
10,O=C(NCc1ccco1)C1(c2ccc(Br)cc2)CCCC1,"inconclusive: 20 µM [inhibitor, single point]"
11,COc1cccc(C(O)c2nc(-c3cccc(F)c3)cs2)c1 (configuration not stated),"inconclusive: 11.2 µM [inhibitor, partial curve, poor fit]"
12,COc1ccc(CNc2ncnc3c2[nH]c2ccccc23)cc1,"inconclusive: 11.2 µM [inhibitor, partial curve, poor fit]"
13,CC(C)NS(=O)(=O)c1ccc2c3c(cccc13)CC2,"inconclusive: 31.6 µM [inhibitor, single point]"
14,CCN1CCSc2ccc(C(=O)NCc3cccc(F)c3)cc21,"inconclusive: 11.2 µM [inhibitor, single point] and inconclusive: 12.6 µM [inhibitor, single point]"
15,Fc1ccc(Nc2nc3nonc3nc2Nc2cccc(C(F)(F)F)c2)cc1,"inconclusive: 3.98 µM [inhibitor, partial curve, poor fit]"
16,CCC(=O)N1N=C(c2cccs2)CC1c1ccc(C)cc1 (configuration not stated),"inconclusive: 28.2 µM [inhibitor, single point]"
17,Cc1ccc(C(=O)Nc2ccc3c(c2)N(C)C(=O)c2ccccc2S3)cc1,"inconclusive: 3.98 µM [inhibitor, partial curve, poor fit]"
